Our source for the binding values is paper PMC8991247.

By UniProt entry, the sequences of proteins in these tests, tags left out.
UniProt A5PLL7: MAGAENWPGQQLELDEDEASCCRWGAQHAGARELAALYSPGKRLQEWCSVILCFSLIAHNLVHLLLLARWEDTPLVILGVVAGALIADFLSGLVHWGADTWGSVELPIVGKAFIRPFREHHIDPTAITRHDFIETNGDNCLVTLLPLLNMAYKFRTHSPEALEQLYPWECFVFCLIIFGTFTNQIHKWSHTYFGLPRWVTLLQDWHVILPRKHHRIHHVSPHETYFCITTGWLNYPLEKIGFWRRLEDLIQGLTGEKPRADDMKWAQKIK

One experiment concerns the target T1, GFP-ULK1-S/T^279-827 (UniProt O75385).
T1 sequence: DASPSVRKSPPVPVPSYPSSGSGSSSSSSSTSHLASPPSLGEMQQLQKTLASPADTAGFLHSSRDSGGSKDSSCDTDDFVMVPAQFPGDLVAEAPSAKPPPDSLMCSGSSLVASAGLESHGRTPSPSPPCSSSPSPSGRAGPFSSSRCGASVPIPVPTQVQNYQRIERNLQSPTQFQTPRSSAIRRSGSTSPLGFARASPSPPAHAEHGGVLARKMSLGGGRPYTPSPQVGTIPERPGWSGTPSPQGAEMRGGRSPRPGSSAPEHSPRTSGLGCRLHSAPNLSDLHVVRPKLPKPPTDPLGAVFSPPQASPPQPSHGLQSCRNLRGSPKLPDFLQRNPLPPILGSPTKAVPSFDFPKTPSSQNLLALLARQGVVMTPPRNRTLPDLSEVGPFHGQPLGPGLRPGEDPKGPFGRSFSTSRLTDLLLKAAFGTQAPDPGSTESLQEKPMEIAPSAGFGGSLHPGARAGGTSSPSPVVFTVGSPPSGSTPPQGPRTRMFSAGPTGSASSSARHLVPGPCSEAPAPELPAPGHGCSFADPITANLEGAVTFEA
Nature of the experiment: co-IP; HEK293T cells transfected for 24 h; RIPA lysates (1 mg), IP with anti-FLAG or anti-GFP and protein G sepharose, 2 h at 4 °C, five washes, western blot; some panels with or without 50 μM CQ, in TRAF6-/- cells, with FLAG-TMEM189 overexpressed or in stable knockdown cells. On the technique in general: Immunoblotting shows a protein as a band on a membrane.

The target in the next experiment is T2, GFP-ULK1-CTD^828-1050 (UniProt O75385).
T2 sequence: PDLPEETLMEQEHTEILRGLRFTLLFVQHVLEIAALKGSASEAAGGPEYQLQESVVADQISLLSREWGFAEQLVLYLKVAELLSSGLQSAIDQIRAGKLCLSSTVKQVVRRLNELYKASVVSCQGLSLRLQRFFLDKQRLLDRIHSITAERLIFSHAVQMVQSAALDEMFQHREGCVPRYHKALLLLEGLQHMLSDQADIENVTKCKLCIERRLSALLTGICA
The experiment is described as above.

A further experiment deals with T3, GFP-ULK1 (UniProt O75385).
T3 sequence: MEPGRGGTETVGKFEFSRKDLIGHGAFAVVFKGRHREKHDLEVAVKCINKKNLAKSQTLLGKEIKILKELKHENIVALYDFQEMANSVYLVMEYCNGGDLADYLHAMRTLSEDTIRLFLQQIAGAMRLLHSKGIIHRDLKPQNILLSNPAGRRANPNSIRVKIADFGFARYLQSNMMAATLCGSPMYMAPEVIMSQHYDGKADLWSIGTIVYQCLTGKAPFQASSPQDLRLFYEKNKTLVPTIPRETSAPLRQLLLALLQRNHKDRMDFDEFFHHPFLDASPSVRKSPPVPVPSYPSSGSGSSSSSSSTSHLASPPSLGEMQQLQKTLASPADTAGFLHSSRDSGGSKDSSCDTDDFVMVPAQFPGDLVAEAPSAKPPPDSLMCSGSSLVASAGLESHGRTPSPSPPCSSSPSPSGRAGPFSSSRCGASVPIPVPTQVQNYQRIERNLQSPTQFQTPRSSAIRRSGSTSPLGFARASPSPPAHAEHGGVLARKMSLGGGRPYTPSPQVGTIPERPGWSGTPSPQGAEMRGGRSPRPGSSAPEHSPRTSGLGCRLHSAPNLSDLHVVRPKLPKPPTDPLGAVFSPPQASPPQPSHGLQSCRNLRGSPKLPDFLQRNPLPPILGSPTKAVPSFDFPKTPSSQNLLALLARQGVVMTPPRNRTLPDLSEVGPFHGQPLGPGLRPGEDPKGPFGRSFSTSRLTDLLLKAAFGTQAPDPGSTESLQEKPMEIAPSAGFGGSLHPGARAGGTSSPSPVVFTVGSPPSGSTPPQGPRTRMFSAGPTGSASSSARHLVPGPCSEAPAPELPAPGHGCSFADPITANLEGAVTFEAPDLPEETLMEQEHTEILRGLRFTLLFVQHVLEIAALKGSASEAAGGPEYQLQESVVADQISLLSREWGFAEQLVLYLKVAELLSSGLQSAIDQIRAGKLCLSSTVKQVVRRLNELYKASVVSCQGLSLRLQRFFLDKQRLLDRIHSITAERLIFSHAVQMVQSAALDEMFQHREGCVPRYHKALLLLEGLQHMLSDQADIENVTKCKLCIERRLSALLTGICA
Described as above.

Experiment [1] addresses T4, endogenous ULK1 (human (endogenous in HEK293T and HeLa)) (UniProt O75385).
T4 sequence: T3 sequence
Nature of the experiment: co-IP; HeLa cells (untransfected with or without EBSS, IP anti-ULK1; ULK1+/+ cells with FLAG-TMEM189, IP anti-FLAG; stable shcontrol or shTMEM189 cells with GFP-ULK1, IP anti-GFP); RIPA lysates, protein G sepharose, 2 h at 4 °C, western blot.

The next experiment deals with T5, GFP-ULK1, O75385.
T5 chain: T3 sequence
Description: co-IP; GFP-ULK1 and HA-ULK1 co-expressed, with or without FLAG-TMEM189; IP anti-GFP, blot for HA-ULK1; the text says HeLa cells, the legend HEK293T cells. The note with it: remark: other sources report otherwise.

Results are given in words; binding and its absence hold for the method and conditions named. In cells and extracts the contact can be indirect. Some entries that bind do so weakly or less than the wild type. For some assays here: Sequences can lack the tags named with a protein.

TMEM189-MYC (from UniProt A5PLL7 1-270): the results for the binding entry with GFP-ULK1-S/T^279-827 and with GFP-ULK1-CTD^828-1050 were “binds” and “no binding”, respectively. As for “FLAG-TMEM189 (from UniProt A5PLL7 1-270)”, the binding entry in the experiment with GFP-ULK1 was “binds”. Consider “endogenous TMEM189 (from UniProt A5PLL7 1-270)”, for which the binding entry in experiment [1] is “binds”.

B1: GFP-ULK1, O75385 1-1050 (protein)
chain: T3 sequence
With B1, the binding entry with GFP-ULK1, O75385 is “binds”.
